The results in this text go back to publication PMC12040169 (PLOS Biology, 2025).

The other results are listed elsewhere or left out.

This assay relates to T1, C. trachomatis L2/434/Bu expressing GFP (CTL2-GFP).
T1 construct: L2/434/Bu GFP intracellular growth in HeLa cells
Also on record: species or system HeLa; C. trachomatis total inclusion area by high-content imaging, normalised to DMSO. As to conditions: total inclusion area; 28.5 h, 10 µM; inhibitor. The procedure, abridged: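 Host cell viability was gauged from Hoechst-stained nuclei counts, while chlamydial growth was taken from total inclusion area and inclusion number per well. Cells were fixed and imaged by high-content microscopy once bulk GFP and resorufin fluorescence had been measured.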
As to `O=C1c2ccccc2C(=O)N1CCOc1nccnc1-c1cnn(Cc2ccccc2)c1` [CBK107089], the “% of control remaining” value stood at 70.9423.
On to `COCCCn1c(CCC(=O)O)ccc1-c1ccc(F)cc1` [CBK267886], for which the “% of control remaining” value is given as 98.3461.
Regarding `Cc1ccc(-c2csc(NC(=O)c3ccccc3C(=O)O)n2)cc1` [CBK072083], the “% of control remaining” value was 109.013.
Regarding `C#CCNCCCOc1ccccc1Oc1ccccc1` [CBK017707C], the “% of control remaining” value is reported as 89.8486.
For the molecule `CSc1nsc(SCC(=O)Nc2ccc(OC(C)=O)cc2)n1` [CBK268948], the “% of control remaining” value came to 94.4365.
Take `O=c1[nH]c(N2CCC3(CC2)OCCO3)nc2c(-c3ccccc3Cl)csc12` [CBK291128]: the “% of control remaining” value stood at 76.7532.
Under `O=S(=O)(Nc1nccnc1N1CCN(c2cnccn2)CC1)c1ccc(Cl)cc1` [CBK049664] stands 102.153; under `NNS(=O)(=O)c1ccc(Oc2ccc([N+](=O)[O-])cc2)cc1` [CBK261669], 102.709; under `Cn1cc(CNCC2CCN(CCO)CC2)c(-c2cccnc2)n1` [CBK305153], 73.9927.
Regarding `Cc1nnc(N/N=C\c2ccco2)n1N` [CBK028824C], the “% of control remaining” value is listed as 57.935.
Turning to `CC(Oc1cccc(C#N)c1)C(=O)NCC1(N2CCOCC2)CCSC1` (stereo not shown) [CBK305780], the “% of control remaining” value is on record as 27.5298.
Turning to `Cc1cc(NC(=O)CN2CCN(Cc3ccc(Cl)nc3)CC2)no1` [CBK305504], the “% of control remaining” value turned out to be 39.2424.
Take `O=C1NC2(CCNCC2)Oc2ccc(-c3cccc4ncccc34)cc21` [CBK083775T]: the “% of control remaining” value is on record as 93.9412.
For `COCCN(C(=O)c1nc2cccnc2s1)C1CCS(=O)(=O)C1` (stereo not shown) [CBK304091], the “% of control remaining” value is on record as 46.8345.
Turning to `CN(C)C(=O)c1cn2cc(-c3cccs3)n(CC3CC3)c(=O)c2n1` [CBK307440], the “% of control remaining” value stood at 97.6238.
`C=CCN(C)C(=O)[C@H]1C[C@@H](O)[C@H](O)[C@@H]2N=C(Nc3ccc(Cl)cc3)S[C@@H]21` [CBK288946]: the “% of control remaining” value was 120.424.
Consider `CCC(=O)NC(=S)Nc1ccc(C(=O)N2CCCC2)cc1` [CBK288464], for which the “% of control remaining” value turned out to be 97.9713.
In the case of `Cc1nn(C)c(C)c1NC(=O)CN1CCN(c2ccccc2Cl)CC1` [CBK306058], the “% of control remaining” value is 70.9351.
To `O=C(NC(=O)C1CCN(CC2COc3ccccc3O2)CC1)Nc1ccccc1` (stereo not shown) [CBK035267] belongs 108.682.
To `Cc1ccc(Cc2nc(-c3cccnc3)no2)cc1` [CBK288141] belongs 40.2906; to `C[C@@H]1CN(C(=O)c2n[nH]c3ccccc23)C[C@H](C)O1` [CBK200232], 101.61.
For the molecule `Cc1nn(-c2ccccc2)c2[nH]c(=O)c(CNC3CCC3)cc12` [CBK282897], the “% of control remaining” value turned out to be 83.2033.
Consider `O=C(CSc1cccc2ccccc12)Nc1ccc([N+](=O)[O-])cc1O` [CBK268696], for which the “% of control remaining” value is recorded as 72.0852.
For `Cc1ccc(-c2cc(C(=O)NCC3(C)COC3)no2)cc1` [CBK281744], the “% of control remaining” value was 90.7337.
With `Cc1nc(N2CCN(Cc3ccc4c(c3)OCO4)CC2)c2c(C)c(C)sc2n1` [CBK266739], the “% of control remaining” value amounted to 92.2292.
Regarding `Cc1cccc(C(=O)Nc2nnc(C3=COCCO3)o2)c1` [CBK287406], the “% of control remaining” value is recorded as 95.4113.
For the molecule `COc1cc(C(=O)Nc2ccccc2C(=O)N2CCN(C)CC2)cc(OC)c1OC` [CBK269803], the “% of control remaining” value amounted to 104.495.
Turning to `COc1cc(CNC(=O)N(CCc2ccccc2)Cc2ccccc2)cc(OC)c1OC` [CBK155329], the “% of control remaining” value came to 45.0406.
For `Cc1cc(NC(=O)COc2ccc(Cl)cc2)nc2c1c(=O)oc1ccccc12` [CBK291230], the “% of control remaining” value stood at 132.808.
As to `CCc1cc(NCCc2ccc(=O)[nH]c2)nc(-c2ccc(Br)cc2)n1` [CBK144610C], the “% of control remaining” value is recorded as 88.9379.
As to `O=C(NCCc1ccccn1)N1CCCN(Cc2cccs2)CC1` [CBK305283], the “% of control remaining” value was 86.3946.
Turning to `Cc1cc2cc(NC(=O)CCc3c(C)n[nH]c3C)ccc2o1` [CBK283077], the “% of control remaining” value worked out at 102.318.
As to `CC(C)Nc1nc(C#N)nc(NC(C)C)n1` [CBK027421], the “% of control remaining” value came out at 72.4548.
`COCc1nnc(Sc2cc(N3CCCC3)ncn2)s1` [CBK093746]: the “% of control remaining” value amounted to 104.814.
Turning to `O=C(CCCn1ccnc1)NC(Cc1ccsc1)c1cccnc1` (stereo not shown) [CBK285158], the “% of control remaining” value is 89.7788.
With `COc1ccccc1-c1cc2nc(C)cc(Nc3ccccc3)n2n1` [CBK287806], the “% of control remaining” value came to 82.8335.
Under `CCOC(=O)c1nnsc1Sc1ccc(C)cc1` [CBK018867] stands 55.4792.
With `CN(C)c1cccc(OCCn2ccnc(N3CCNCC3)c2=O)c1` [CBK013866F], the “% of control remaining” value turned out to be 114.213.
For `COc1ccccc1OCC(=O)N1CCN(C(=O)c2ccco2)CC1` [CBK144466], the “% of control remaining” value is 114.551.
To `Cc1cc(C)c2c(c1)cc(C)c1nn(CC(=O)N3CCCC3)c(=O)n12` [CBK283876] belongs 94.0042.
Regarding `O=C(O)c1ccc(CN2C(=O)c3ccc(C(=O)c4ccc(C(=O)O)cc4)cc3C2=O)cc1` [CBK262831], the “% of control remaining” value was 109.408.
In the case of `CN1CCN(Cc2c(C(C)(C)C)[nH]c3ncccc23)CC1` [CBK285334], the “% of control remaining” value is reported as 91.5981.
Under `CCC(NC(=O)C(c1cccs1)c1cccs1)c1ccc(F)cc1` (stereo not shown) [CBK286339] stands 101.509.
Turning to `COc1ccc(CCNC(=O)N2CCCCC2CO)cc1` (stereo not shown) [CBK156188], the “% of control remaining” value is reported as 97.7843.
Take `Cc1nccn1CCNC(=O)CC1C(=O)N(C)c2ccccc21` (stereo not shown) [CBK281977]: the “% of control remaining” value is 83.5085.
On to `O=C(CC1NC(=O)NC1=O)Nc1ccc(C(=O)O)cc1` (stereo not shown) [CBK267355], for which the “% of control remaining” value is given as 112.433.
Regarding `CC(C)(C)OC(=O)N1CCN(C(=O)N[C@@H](Cc2ccccc2)C(=O)O)CC1` [CBK286785], the “% of control remaining” value worked out at 110.535.
As for `CCN(CC)CC1CCCN(C(=O)Cn2ccc3ccc(F)cc32)C1` (stereo not shown) [CBK282146], the “% of control remaining” value came to 87.3401.
Regarding `COc1ccc(C(=O)C2=C(O)C(=O)N(CCN(C)C)C2c2ccncc2)c(C)c1` (stereo not shown) [CBK264867], the “% of control remaining” value is listed as 115.669.
Take `Cc1cc(C)n2ncc(C(=O)NCC(c3cccs3)N3CCCC3)c2n1` (stereo not shown) [CBK305675]: the “% of control remaining” value turned out to be 81.3396.
As to `CC(C)CNC(=O)c1cc([C@H]2CC[C@H](CNC(=O)c3cnn(C)c3)CC2)nc2ccccc12` [CBK285867], the “% of control remaining” value worked out at 80.7474.
To `Fc1ccc(Oc2nccnc2N2CCN(Cc3cccnc3)CC2)cc1` [CBK083011] belongs 74.9562.
